The values below come from PMC10668032.

The list shows a part of the results. At the low end of the ranking the order means little.

The assay concerns the target SIX1-Q177R homeodomain (UniProt Q15475). The assay is described as follows: universal protein binding microarray. The conditions noted are these: Universal all-10-mer PBM (8x60K, AMADID 030236), 300 nM GST-tagged protein, Alexa Fluor 488 anti-GST; buffer, salt, pH and temperature not stated; high values mean tight binding; most listed sequences are background and not binding sites; double strand, one strand shown.
For ATAGTGTA, the binding signal was found to be 0.391 E-score. For CATTTGGC the value was -0.166 E-score; for CTCTGTCC, -0.0676 E-score; for GTCTACGA, -0.168 E-score. As for TGCTCTAA, the figure is -0.0176 E-score; as for TCTTAAAA, -0.318 E-score; as for CTAGTCCC, -0.19 E-score.

In the case of AGATTAGG, the binding signal was -0.278 E-score. For the sequence CCGGGTCA, the binding signal stood at 0.285 E-score. For TTACTGAA the value was -0.217 E-score; for CATCTTAA, -0.105 E-score; for ACCTGCAG, 0.0645 E-score. For the sequence AATGGTAA, the binding signal is -0.086 E-score. For AGCGTTAC the value was 0.0757 E-score; for TACATAAA, -0.0372 E-score.

As for AGCGCCTC, the binding signal was -0.164 E-score. For AGCGTCCC the value was 0.0752 E-score; for AGCTATAG, -0.103 E-score; for ATCGCGAG, 0.00577 E-score. For CTAACCTC the value was -0.036 E-score; for CCCGCTTC, 0.00549 E-score. As for AAGGCAAT, the figure is -0.361 E-score. With AGAACTCT, the binding signal was -0.051 E-score. As for GACGGCTA, the figure is -0.106 E-score.

On to CAGCGCGG, for which the binding signal stood at 0.0508 E-score. For CGCTAAGC the value was -0.027 E-score; for ACCCAGAA, 0.179 E-score. For the sequence CTTCAATC, the binding signal is -0.163 E-score. For TGACTACA the value was 0.0666 E-score. As for CTAGTACC, the figure is 0.0993 E-score; as for CAAGACGG, 0.0717 E-score. For ATCAACCC the value was 0.11 E-score; for ACGGGGGG, 0.141 E-score. Turning to AGCAATGC, the binding signal is -0.118 E-score. As for CATTCGAA, the figure is -0.225 E-score; as for TAAAAAGA, -0.266 E-score; as for AATAAAAG, -0.0151 E-score.

Regarding ATTAACCC, the binding signal is 0.187 E-score.

As to AGCACGAC, the binding signal came to 0.0753 E-score. For AATTACTG the value was -0.0851 E-score; for AGGAGCAC, -0.00598 E-score; for CTCTAGTA, 0.0726 E-score. CAGAAATG: the binding signal amounted to 0.0828 E-score. For CCAAAGCC the value was -0.174 E-score; for CCCTTATA, 0.0828 E-score; for ACCCTGCG, 0.107 E-score. As for AAACGGAC, the figure is -0.246 E-score. For CTGAGTTC the value was -0.0729 E-score; for AGGCGAAG, -0.082 E-score. In the case of GTCAACTA, the binding signal was -0.0849 E-score.

As to AACCTCCC, the binding signal was 0.106 E-score.

Regarding CTGTCATA, the binding signal is -0.0884 E-score. As for CCGTTGCA, the figure is 0.0624 E-score. For AACGTATA the value was -0.259 E-score; for ACGGAAGA, -0.0672 E-score. In the case of GCGAACCA, the binding signal was -0.0706 E-score. For CCAGAGCG the value was -0.0316 E-score. Turning to CAGTCTAC, the binding signal was -0.159 E-score.

With ATCTGAAG, the binding signal was -0.239 E-score. As for CGCCAGTC, the figure is 0.0338 E-score; as for GCAACAGA, -0.162 E-score; as for CAGGCCGA, 0.0294 E-score. Turning to ATGCAGGC, the binding signal is -0.00914 E-score.

For AGCCATTG, the binding signal is -0.121 E-score. For GCTAAAGA the value was -0.212 E-score; for ACTTGCCT, -0.0596 E-score. For GCTGATTA the value was -0.152 E-score; for CCTCCTCC, 0.00537 E-score; for CGCACAAG, 0.0176 E-score. As for ACCCGGCT, the figure is 0.202 E-score; as for CCAATCTA, -0.0409 E-score. Consider CCACCAAC, for which the binding signal was 0.0288 E-score. As for AATAAGTA, the figure is -0.0835 E-score. For GAGCGCCA the value was -0.0784 E-score; for ACCCCCTG, 0.328 E-score. As for CCCGTGCG, the figure is 0.111 E-score; as for AATAAATT, -0.132 E-score.

For CGGAATAC, the binding signal is 0.0967 E-score. As to AATTCACG, the binding signal is -0.2 E-score. For AAAATAGC the value was -0.205 E-score; for GGCATGAA, -0.0861 E-score. ATGATTCC: the binding signal is 0.126 E-score. As for AGGGGGAG, the figure is -0.129 E-score; as for GTCCCGTA, -0.035 E-score. As for GATAAACC, the figure is -0.134 E-score; as for ATGCCGGC, -0.0853 E-score; as for CCAGACTC, -0.127 E-score. As to AACCGCAC, the binding signal was determined as 0.13 E-score.

As to GAGAAAAC, the binding signal is -0.0866 E-score. As for GCTGAACC, the figure is -0.0567 E-score; as for CACTTGGG, 0.0226 E-score. For CCTATGGC the value was -0.181 E-score; for CAGAAAAA, 0.042 E-score. As for GAGACAGA, the figure is -0.189 E-score. Consider AAAAGGCA, for which the binding signal was -0.208 E-score.

On to ATCTTATA, for which the binding signal was -0.142 E-score.

For the sequence AGTCTAGA, the binding signal is -0.172 E-score. For GCTACCCC the value was 0.23 E-score; for AGGCGCGG, 0.0386 E-score; for AGATGCAC, 0.0824 E-score. For CCGATATC the value was 0.0105 E-score; for CACTGGCA, 0.28 E-score. As for GTCCCAGA, the figure is -0.18 E-score. For AGAGCTAC, the binding signal was -0.0507 E-score.

Regarding AACTTCTC, the binding signal is -0.163 E-score. For AAATGACG the value was -0.0479 E-score. For CTGTACTC the value was -0.103 E-score. For CAGTATGC the value was -0.252 E-score.

In the case of CGAGGATA, the binding signal worked out at 0.114 E-score. As for TGAAACAA, the figure is -0.166 E-score.
